B1: CUUUCAG (DNA:RNA)
RNA: GGGAGACCGGAAUUCAGAUUGUCCCUUUCAGUUAAAUCCCGUCGUAGCCACCA
DNA 1: CAATCTGAATTCCGGTCTCCC
DNA 2: TGGTGGCTACGACGGGATT
B2: CUUCGUC (DNA:RNA)
RNA: B1 RNA with U28C, C29G, A30U, G31C
DNA 1: CAATCTGAATTCCGGTCTCCC
DNA 2: TGGTGGCTACGACGGGATT
B3: CAGGAGC (DNA:RNA)
RNA: B1 RNA with U26A, U27G, U28G, C29A, A30G, G31C
DNA 1: CAATCTGAATTCCGGTCTCCC
DNA 2: TGGTGGCTACGACGGGATT
B4: CGGCGUU (DNA:RNA)
RNA: B1 RNA with U26G, U27G, U28C, C29G, A30U, G31U
DNA 1: CAATCTGAATTCCGGTCTCCC
DNA 2: TGGTGGCTACGACGGGATT
B5: UCCGUGA (DNA:RNA)
RNA: GGGAGACCGGAAUUCAGAUUGUCCUCCGUGAUUAAAUCCCGUCGUAGCCACCA
DNA 1: CAATCTGAATTCCGGTCTCCC
DNA 2: TGGTGGCTACGACGGGATT
B6: UACAGUA (DNA:RNA)
RNA: B5 RNA with C26A, G28A, U29G, G30U
DNA 1: CAATCTGAATTCCGGTCTCCC
DNA 2: TGGTGGCTACGACGGGATT
B7: GUAUUUA (DNA:RNA)
RNA: B1 RNA with C25G, U27A, C29U, A30U, G31A
DNA 1: CAATCTGAATTCCGGTCTCCC
DNA 2: TGGTGGCTACGACGGGATT
B8: UACCGAC (DNA:RNA)
RNA: B5 RNA with C26A, G28C, U29G, G30A, A31C
DNA 1: CAATCTGAATTCCGGTCTCCC
DNA 2: TGGTGGCTACGACGGGATT
B9: GCACAGU (DNA:RNA)
RNA: B5 RNA with U25G, C27A, G28C, U29A, A31U
DNA 1: CAATCTGAATTCCGGTCTCCC
DNA 2: TGGTGGCTACGACGGGATT
B10: CAAACGA (DNA:RNA)
RNA: B1 RNA with U26A, U27A, U28A, A30G, G31A
DNA 1: CAATCTGAATTCCGGTCTCCC
DNA 2: TGGTGGCTACGACGGGATT
B11: GAGGAUC (DNA:RNA)
RNA: B5 RNA with U25G, C26A, C27G, U29A, G30U, A31C
DNA 1: CAATCTGAATTCCGGTCTCCC
DNA 2: TGGTGGCTACGACGGGATT
B12: AACUAAA (DNA:RNA)
RNA: B1 RNA with C25A, U26A, U27C, C29A, G31A
DNA 1: CAATCTGAATTCCGGTCTCCC
DNA 2: TGGTGGCTACGACGGGATT
B13: AUUCAAA (DNA:RNA)
RNA: B1 RNA with C25A, U28C, C29A, G31A
DNA 1: CAATCTGAATTCCGGTCTCCC
DNA 2: TGGTGGCTACGACGGGATT
B14: CACGGUA (DNA:RNA)
RNA: B5 RNA with U25C, C26A, U29G, G30U
DNA 1: CAATCTGAATTCCGGTCTCCC
DNA 2: TGGTGGCTACGACGGGATT
B15: GGGCGAU (DNA:RNA)
RNA: B1 RNA with C25G, U26G, U27G, U28C, C29G, G31U
DNA 1: CAATCTGAATTCCGGTCTCCC
DNA 2: TGGTGGCTACGACGGGATT
B16: UCCAGUA (DNA:RNA)
RNA: B5 RNA with G28A, U29G, G30U
DNA 1: CAATCTGAATTCCGGTCTCCC
DNA 2: TGGTGGCTACGACGGGATT
B17: CCCAAGU (DNA:RNA)
RNA: B5 RNA with U25C, G28A, U29A, A31U
DNA 1: CAATCTGAATTCCGGTCTCCC
DNA 2: TGGTGGCTACGACGGGATT
B18: ACUUCGG (DNA:RNA)
RNA: B1 RNA with C25A, U26C, A30G
DNA 1: CAATCTGAATTCCGGTCTCCC
DNA 2: TGGTGGCTACGACGGGATT
B19: UCUAGGU (DNA:RNA)
RNA: B5 RNA with C27U, G28A, U29G, A31U
DNA 1: CAATCTGAATTCCGGTCTCCC
DNA 2: TGGTGGCTACGACGGGATT
B20: ACCGGCU (DNA:RNA)
RNA: B5 RNA with U25A, U29G, G30C, A31U
DNA 1: CAATCTGAATTCCGGTCTCCC
DNA 2: TGGTGGCTACGACGGGATT

Residue numbers refer to the chain shown, from its start. Some of the results follow.

The assay addresses T1, RBFOX1 RRM (Homo sapiens, UniProt Q9NWB1 109-208).
T1 sequence: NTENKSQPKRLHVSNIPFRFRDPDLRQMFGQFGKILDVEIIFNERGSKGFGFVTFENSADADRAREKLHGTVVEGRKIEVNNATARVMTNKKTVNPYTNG
As to the kind of experiment: EMSA; HiTS-Eq, 1 nM pool, 10 min; buffer printed only for the single-RNA assays: 10 mM Tris pH 7.5, 150 mM NaCl, 3.4 mM EDTA, 0.001% NP-40, 30 C. The note with it: tags: His6 N-terminal (pET28a); label: 5' 32P. The procedure, abridged:
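A pool of RNA with 7 randomized nucleotides, 5′-radiolabelled and with DNA-annealed flanks, was equilibrated at 1 nM for 10 min in 50 µL with purified RbFox RRM, wild type or mutant, across increasing protein concentrations. Free RNA was separated by 8% native PAGE, excised, reverse-transcribed, barcoded by PCR and sequenced. Relative association constants were obtained from read-count changes of each RNA species versus the control reaction and normalised to the cognate motif.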
Consider B1, for which the binding signal was 0.0157 KA relative to UGCAUGU.
Take B2: the binding signal was 0.0122 KA relative to UGCAUGU.
To B3 belongs 0.0107 KA relative to UGCAUGU.
The figure for B4 is 0.0162 KA relative to UGCAUGU; for B5 it is 0.00906 KA relative to UGCAUGU; for B6 it is 0.00635 KA relative to UGCAUGU.
For the molecule B7, the binding signal was 0.00582 KA relative to UGCAUGU.
The figure for B8 is 0.00679 KA relative to UGCAUGU; for B9 it is 0.00714 KA relative to UGCAUGU; for B10 it is 0.0029 KA relative to UGCAUGU.
For B11, the binding signal is 0.0149 KA relative to UGCAUGU.
As for B12, the binding signal is 0.000329 KA relative to UGCAUGU.
On to B13, for which the binding signal was 0.00245 KA relative to UGCAUGU.
On to B14, for which the binding signal was 0.00693 KA relative to UGCAUGU.
In the case of B15, the binding signal was 0.0127 KA relative to UGCAUGU.
For B16, the binding signal is 0.0094 KA relative to UGCAUGU.
For B17, the binding signal is 0.0129 KA relative to UGCAUGU.
As for B18, the binding signal is 0.00412 KA relative to UGCAUGU.
On to B19, for which the binding signal was 0.0107 KA relative to UGCAUGU.
In the case of B20, the binding signal is 0.00698 KA relative to UGCAUGU.
